Source: patent US7619094B2, “Ketoamides with cyclic P4's as inhibitors of NS3 serine protease of hepatitis C virus” (Schering Corporation, priority 2004, dated 2009)

What follows are compounds tested against Recombinant heterodimeric HCV NS3/NS4A protease (strain 1a) (Hepatitis C virus genotype 1a, UniProt P27958) (assay: HCV continuous assay (spectrophotometric HCV NS3/NS4A serine protease inhibition assay)). Conditions: Table 1; ranges of Ki* values in HCV continuous assay.
Assay type: biochemical, HCV (strain 1a)
From the text: The present invention relates to novel HCV protease inhibitors. This utility can be manifested in their ability to inhibit the HCV NS3/NS4a serine protease.
Assay for HCV Protease Inhibitory Activity:
• Spectrophotometric Assay: Spectrophotometric assay for the HCV serine protease can be performed on the inventive compounds by following the procedure described by R. Zhang et al, Analytical Biochemistry, 270 (1999) 268-275, the disclosure of which is incorporated herein by reference. The assay based on the proteolysis of chromogenic ester substrates is suitable for the continuous monitoring of HCV NS3 protease activity. The substrates are derived from the P side of the NS5A-NS5B junction sequence (Ac-DTEDWX(Nva), where X=A or P) whose C-terminal carboxyl groups are esterified with one of four different chromophoric alcohols (3- or 4-nitrophenol, 7-hydroxy-4-methyl-coumarin, or 4-phenylazophenol). Illustrated below are the synthesis, characterization and application of these novel spectrophotometric ester substrates to high throughput screening and detailed kinetic evaluation of HCV NS3 protease inhibitors. Materials and Methods:
Materials: Chemical reagents for assay related buffers are obtained from Sigma Chemical Company (St. Louis, Mo.). Reagents for peptide synthesis were from Aldrich Chemicals, Novabiochem (San Diego, Calif.), Applied Biosystems (Foster City, Calif.) and Perseptive Biosystems (Framingham, Mass.). Peptides are synthesized manually or on an automated ABI model 431A synthesizer (from Applied Biosystems). UV/VIS Spectrometer model LAMBDA 12 was from Perkin Elmer (Norwalk, Conn.) and 96-well UV plates were obtained from Corning (Corning, N.Y.). The prewarming block can be from USA Scientific (Ocala, Fla.) and the 96-well plate vortexer is from Labline Instruments (Melrose Park, Ill.). […] Protein concentrations are determined by the Biorad dye method using recombinant HCV protease standards previously quantified by amino acid analysis. Prior to assay initiation, the enzyme storage buffer (50 mM sodium phosphate pH 8.0, 300 mM NaCl, 10% glycerol, 0.05% lauryl maltoside and 10 mM DTT) is exchanged for the assay buffer (25 mM MOPS pH 6.5, 300 mM NaCl, 10% glycerol, 0.05% lauryl maltoside, 5 μM EDTA and 5 μM DTT) utilizing a Biorad Bio-Spin P-6 prepacked column. • Substrate Synthesis and Purification: The synthesis of the substrates is done as reported by R. Zhang et al, (ibid.) and is initiated by anchoring Fmoc-Nva-OH to 2-chlorotrityl chloride resin using a standard protocol (K. Barlos et al, Int. J. Pept. Protein Res., 37 (1991), 513-520). The peptides are subsequently assembled, using Fmoc chemistry, either manually or on an automatic ABI model 431 peptide synthesizer. […] The combined filtrate and DCM wash is evaporated azeotropically (or repeatedly extracted by aqueous Na2CO3 solution) to remove the acid used in cleavage. The DCM phase is dried over Na2SO4 and evaporated.
The ester substrates are assembled using standard acid-alcohol coupling procedures (K. Holmber et al, Acta Chem. Scand., B33 (1979) 410-412). Peptide fragments are dissolved in anhydrous pyridine (30-60 mg/ml) to which 10 molar equivalents of chromophore and a catalytic amount (0.1 eq.) of para-toluenesulfonic acid (PTSA) were added. Dicyclohexylcarbodiimide (DCC, 3 eq.) is added to initiate the coupling reactions. Product formation is monitored by HPLC and can be found to be complete following 12-72 hour reaction at room temperature. Pyridine solvent is evaporated under vacuum and further removed by azeotropic evaporation with toluene.

Row | Compound | Ki
1 | C=CCNC(=O)C(=O)C(CCC)NC(=O)[C@@H]1[C@@H]2[C@H](CN1C(=O)[C@@H](NC(=O)N[C@H](CN1CCCCS1(=O)=O)C(C)(C)C)C1CCCCC1)C2(C)C (some centres unmarked) [Compound 5175] | ≤ 50 nM
2 | CCCCC(NC(=O)[C@@H]1[C@@H]2[C@H](CN1C(=O)[C@@H](NC(=O)N[C@H](CN1Cc3sccc3S1(=O)=O)C(C)(C)C)C(C)(C)C)C2(C)C)C(=O)C(=O)NCC (some centres unmarked) [Compound 5259] | ≤ 50 nM
3 | CC(C)(C)[C@H](NC(=O)N[C@H](CN1CCNS1(=O)=O)C(C)(C)C)C(=O)N1C[C@H]2[C@@H]([C@H]1C(=O)NC(CC1CC1)C(=O)C(N)=O)C2(C)C (some centres unmarked) [Compound 5149] | ≤ 50 nM
4 | CC(C)(C)[C@@H](CN1CCCS1(=O)=O)NC(=O)N[C@H](C(=O)N1C[C@H]2[C@@H]([C@H]1C(=O)NC(CC1CCC1)C(=O)C(N)=O)C2(C)C)C1CCCCC1 (some centres unmarked) [Compound 5138] | ≤ 50 nM
5 | CC(C)(C)[C@H](NC(=O)N[C@H](CN1Cc2sccc2S1(=O)=O)C(C)(C)C)C(=O)N1C[C@H]2[C@@H]([C@H]1C(=O)NC(CC1CCC1)C(=O)C(N)=O)C2(C)C (some centres unmarked) [Compound 5152] | ≤ 50 nM
6 | C#CCCC(NC(=O)[C@@H]1[C@@H]2[C@H](CN1C(=O)[C@@H](NC(=O)N[C@H](CN1CCCN(C)S1(=O)=O)C(C)(C)C)C1CCCCC1)C2(C)C)C(=O)C(=O)NCC=C (some centres unmarked) [Compound 5242] | ≤ 50 nM
7 | CC(C)(C)[C@H](NC(=O)N[C@H](CN1CCCCS1(=O)=O)C1CCCCC1)C(=O)N1C[C@H]2[C@@H]([C@H]1C(=O)NC(CC1CC1)C(=O)C(N)=O)C2(C)C (some centres unmarked) [Compound 5231] | ≤ 50 nM
8 | C=CCNC(=O)C(=O)C(CC1CCC1)NC(=O)[C@@H]1[C@@H]2[C@H](CN1C(=O)[C@@H](NC(=O)N[C@H](CN1CCCCS1(=O)=O)C(C)(C)C)C(C)(C)C)C2(C)C (some centres unmarked) [Compound 5190] | ≤ 50 nM
9 | C=CCNC(=O)C(=O)C(CCC)NC(=O)[C@@H]1[C@@H]2[C@H](CN1C(=O)[C@@H](NC(=O)N[C@H](CN1Cc3ccccc3S1(=O)=O)C(C)(C)C)C1(C)CCCCC1)C2(C)C (some centres unmarked) [Compound 5260] | ≤ 50 nM
10 | CC(C)(C)[C@H](NC(=O)N[C@H](CN1CCN(CC2CC2)S1(=O)=O)C(C)(C)C)C(=O)N1C[C@H]2[C@@H]([C@H]1C(=O)NC(CC1CC1)C(=O)C(N)=O)C2(C)C (some centres unmarked) [Compound 5199] | ≤ 50 nM
11 | CC(C)(C)[C@@H](CN1Cc2sccc2S1(=O)=O)NC(=O)N[C@H](C(=O)N1C[C@H]2[C@@H]([C@H]1C(=O)NC(CC1CC1)C(=O)C(N)=O)C2(C)C)C1CCCCC1 (some centres unmarked) [Compound 5185] | ≤ 50 nM
12 | C=CCNC(=O)C(=O)C(CCCC)NC(=O)[C@@H]1[C@@H]2[C@H](CN1C(=O)[C@@H](NC(=O)N[C@H](CN1CCCS1(=O)=O)C(C)(C)C)C1CCCCC1)C2(C)C (some centres unmarked) [Compound 5133] | ≤ 50 nM
13 | CC(C)(C)[C@H](NC(=O)N[C@H](CN1CCCCS1(=O)=O)C1CCCCC1)C(=O)N1C[C@H]2[C@@H]([C@H]1C(=O)NC(CC1CCC1)C(=O)C(N)=O)C2(C)C (some centres unmarked) [Compound 5232] | ≤ 50 nM
14 | C=CCNC(=O)C(=O)C(CC1CCC1)NC(=O)[C@@H]1[C@@H]2[C@H](CN1C(=O)[C@@H](NC(=O)N[C@H](CN1Cc3sccc3S1(=O)=O)C(C)(C)C)C(C)(C)C)C2(C)C (some centres unmarked) [Compound 5262] | ≤ 50 nM
15 | C=CCNC(=O)C(=O)C(CCCC)NC(=O)[C@@H]1[C@@H]2[C@H](CN1C(=O)[C@@H](NC(=O)N[C@H](CN1Cc3ccccc3S1(=O)=O)C(C)(C)C)C(C)(C)C)C2(C)C (some centres unmarked) [Compound 5164] | ≤ 50 nM
16 | C=CCNC(=O)C(=O)C(CCCC)NC(=O)[C@@H]1[C@@H]2[C@H](CN1C(=O)[C@@H](NC(=O)N[C@H](CN1CCCNS1(=O)=O)C(C)(C)C)C(C)(C)C)C2(Cl)Cl (some centres unmarked) [Compound 5247] | ≤ 50 nM
17 | CCCCC(NC(=O)[C@@H]1[C@@H]2[C@H](CN1C(=O)[C@@H](NC(=O)N[C@H](CN1CCCCS1(=O)=O)C(C)(C)C)C1CCCCC1)C2(C)C)C(=O)C(N)=O (some centres unmarked) [Compound 5189] | ≤ 50 nM
18 | C=CCNC(=O)C(=O)C(CCC)NC(=O)[C@@H]1[C@@H]2[C@H](CN1C(=O)[C@@H](NC(=O)N[C@H](CN1Cc3ccccc3S1(=O)=O)C(C)(C)C)C1CCCCC1)C2(C)C (some centres unmarked) [Compound 5250] | ≤ 50 nM
19 | C=CCNC(=O)C(=O)C(CCCC)NC(=O)[C@@H]1[C@@H]2[C@H](CN1C(=O)[C@@H](NC(=O)NC1(CN3Cc4sccc4S3(=O)=O)CCCCC1)C(C)(C)C)C2(C)C (some centres unmarked) [Compound 5206] | ≤ 50 nM
20 | C=CCNC(=O)C(=O)C(CCCC)NC(=O)[C@@H]1[C@@H]2[C@H](CN1C(=O)[C@@H](NC(=O)N[C@H](CN1Cc3ccccc3S1(=O)=O)C1CCCCC1)C(C)(C)C)C2(C)C (some centres unmarked) [Compound 5222] | ≤ 50 nM
21 | C=CCNC(=O)C(=O)C(CC1CC1)NC(=O)[C@@H]1[C@@H]2[C@H](CN1C(=O)[C@@H](NC(=O)N[C@H](CN1CCN(C(C)C)S1(=O)=O)C(C)(C)C)C(C)(C)C)C2(C)C (some centres unmarked) [Compound 5237] | ≤ 50 nM

Same assay, conditions: Table 2; ranges of Ki* values in HCV continuous assay

Row | Compound | Ki
22 | C=CCNC(=O)C(=O)C(CC1CC1)NC(=O)[C@@H]1[C@@H]2[C@H](CN1C(=O)[C@@H](NC(=O)N[C@H](CN1CCCC1=O)C(C)(C)C)C(C)(C)C)C2(C)C (some centres unmarked) [Compound 5623] | ≤ 50 nM
23 | C=CCNC(=O)C(=O)C(CC1CCC1)NC(=O)[C@@H]1[C@@H]2[C@H](CN1C(=O)[C@@H](NC(=O)N[C@H](CN1Cc3ccccc3C1=O)C(C)(C)C)C(C)(C)C)C2(C)C (some centres unmarked) [Compound 5744] | > 50 nM
24 | CC(C)(C)[C@@H](CN1C(=O)CCCC1=O)NC(=O)N[C@H](C(=O)N1C[C@H]2[C@@H]([C@H]1C(=O)NC(CC1CCC1)C(=O)C(N)=O)C2(C)C)C1CCCCC1 (some centres unmarked) [Compound 5709] | ≤ 50 nM
25 | C=CCNC(=O)C(=O)C(CCC)NC(=O)[C@@H]1[C@@H]2[C@H](CN1C(=O)[C@@H](NC(=O)N[C@H](CN1C(=O)CCCC1=O)C(C)(C)C)C(C)(C)C)C2(C)C (some centres unmarked) [Compound 5671] | ≤ 50 nM
26 | C=CCNC(=O)C(=O)C(CCCC)NC(=O)[C@@H]1[C@@H]2[C@H](CN1C(=O)[C@@H](NC(=O)NC1(CN3C(=O)c4ccccc4C3=O)CCCCC1)C(C)(C)C)C2(C)C (some centres unmarked) [Compound 5677] | > 50 nM
27 | C=CCNC(=O)C(=O)C(CCCC)NC(=O)[C@@H]1[C@@H]2[C@H](CN1C(=O)[C@@H](NC(=O)N[C@H](CN1CCCNC1=O)C(C)(C)C)C1Cc3ccccc3C1)C2(C)C (some centres unmarked) [Compound 5728] | ≤ 50 nM
28 | CC(C)(C)[C@H](NC(=O)N[C@H](CN1CCCCC1=O)C(C)(C)C)C(=O)N1C[C@H]2[C@@H]([C@H]1C(=O)NC(CC1CCC1)C(=O)C(N)=O)C2(C)C (mixture of isomers) [Compound 5644] | ≤ 50 nM
29 | CCCC(NC(=O)[C@@H]1[C@@H]2[C@H](CN1C(=O)[C@@H](NC(=O)N[C@H](CN1C(=O)c3ccncc3C1=O)C(C)(C)C)C(C)(C)C)C2(C)C)C(=O)C(N)=O (some centres unmarked) [Compound 5661] | ≤ 50 nM
30 | C=CCNC(=O)C(=O)C(CCC)NC(=O)[C@@H]1[C@H]2CC(C)(C)O[C@H]2CN1C(=O)[C@@H](NC(=O)N[C@H](CN1CCCCC1=O)C(C)(C)C)C1CCCCC1 (some centres unmarked) [Compound 5778] | ≤ 50 nM
31 | C=CCNC(=O)C(=O)C(CC1CC1)NC(=O)[C@@H]1[C@@H]2[C@H](CN1C(=O)[C@@H](NC(=O)N[C@H](CN1CCCCC1=O)C(C)(C)C)C1Cc3ccccc3C1)C2(C)C (some centres unmarked) [Compound 5722] | ≤ 50 nM
32 | C=CCNC(=O)C(=O)C(CCC)NC(=O)[C@@H]1[C@@H]2[C@H](CN1C(=O)[C@@H](NC(=O)N[C@H](CN1C(=O)COCC1=O)C(C)(C)C)C(C)(C)C)C2(C)C (some centres unmarked) [Compound 5689] | ≤ 50 nM
33 | C=CCNC(=O)C(=O)C(CCC)NC(=O)[C@@H]1[C@@H]2[C@H](CN1C(=O)[C@@H](NC(=O)N[C@H](Cn1ccccc1=O)C(C)C)C(C)(C)C)C2(C)C (some centres unmarked) [Compound 5605] | ≤ 50 nM
34 | C=CCNC(=O)C(=O)C(CCCC)NC(=O)[C@@H]1[C@@H]2[C@H](CN1C(=O)[C@@H](NC(=O)N[C@H](CN1C(=O)Cc3ccccc3C1=O)C(C)(C)C)C(C)(C)C)C2(C)C (some centres unmarked) [Compound 5737] | ≤ 50 nM
35 | CCCCC(NC(=O)[C@@H]1[C@@H]2[C@H](CN1C(=O)[C@@H](NC(=O)N[C@H](CN1CCCC1=O)C(C)(C)C)C(C)(C)C)C2(C)C)C(=O)C(N)=O (some centres unmarked) [Compound 5624] | ≤ 50 nM
